This is an account of results in PubChem BioAssay AID1745853 (National Center for Advancing Translational Sciences (NCATS), 2022).

Common to all, as to experiment: Primary Screen for Target Class Profiling of Small Molecule Inhibitors of Methyltransferases
For assay [1], the target named is Glycine N-methyltransferase (Homo sapiens) (UniProt Q14749). As to conditions: purified enzyme, MTase-Glo SAH luminescence; measured here: GNMT inhibition; at 40 µM; stronger effect = lower value. The method in brief: (§1)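 Each enzyme was assayed with SAM and its substrate. SAH formation detected by MTase-Glo luminescence; single-point 40 uM screen[…].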
Assay [2] concerns the target Guanidinoacetate N-methyltransferase (Homo sapiens) (UniProt Q14353). The note with it: purified enzyme, MTase-Glo SAH luminescence; measured here: GAMT inhibition; at 40 µM; stronger effect = lower value. The method in brief: as §1
Assay [3] concerns the target Histamine N-methyltransferase (Homo sapiens) (UniProt P50135). As to conditions: purified enzyme, MTase-Glo SAH luminescence; measured here: HNMT inhibition; at 40 µM; stronger effect = lower value. In outline:
as §1

The target of assay [4] is Nicotinamide N-methyltransferase (Homo sapiens) (UniProt P40261). As to conditions: purified enzyme, MTase-Glo SAH luminescence; measured here: NNMT inhibition; at 40 µM; stronger effect = lower value. The method in brief: as §1
The target of assay [5] is Phenylethanolamine N-methyltransferase (Homo sapiens) (UniProt P11086). As to conditions: purified enzyme, MTase-Glo SAH luminescence; measured here: PNMT inhibition; at 40 µM; stronger effect = lower value. In outline: as §1

Molecules are shown by their SMILES. This is one part of the list. The main result of the screen is listed elsewhere. These columns were measured beside it and carry no call.
% is scaled to controls: 0 for no effect and ±100 for the full control effect.

For the compound `CCOc1ccc(CN2C(=O)c3cc4ccccc4n3CC2(C)C(=O)NCc2ccccc2OC)cc1` (stereo not drawn), the activity change, negative = inhibition came out at 5.74% in assay [1]; 4.53% in assay [2]; 9.86% in assay [3]; 5.31% in assay [4]; 1.63% in assay [5].

Turning to `COc1ccc(CCNC(=O)CCc2nnc3n(Cc4ccc(Cl)cc4)c(=O)c4ccccc4n23)cc1OC`, the activity change, negative = inhibition was -5.88% in assay [1]; 0% in assay [2]; 10.6% in assay [3]; -8.72% in assay [4]; 2.63% in assay [5].

For the compound `O=C(Nc1ccc(S(=O)(=O)Nc2nccs2)cc1)C(c1ccccc1)c1ccccc1`, the activity change, negative = inhibition was 0.084% in assay [1]; -5.39% in assay [2]; 2.35% in assay [3]; -36.6% in assay [4]; -12.7% in assay [5].

Turning to `O=C1c2ccccc2-c2c(NCCc3ccccc3)c(=O)[nH]c3cccc1c23`, the activity change, negative = inhibition in assay [2] is -15.6%; in assay [4], -37.5%; in assay [5] it was -13.8%.

Consider `COc1cccc(CN2C(=O)c3cc4occc4n3CC2(C)C(=O)NC2CCCCC2C)c1` (stereo not drawn), for which the activity change, negative = inhibition in assay [1] is -0.769%; in assay [2], 0.183%; in assay [3], 0.481%; in assay [4], -3.44%; in assay [5], -2.66%.

As for `COc1ccc2cc3n(c2c1)CC(C)(C(=O)NC1CCCC1)N(C1CCCCCC1)C3=O` (stereo not drawn), the activity change, negative = inhibition was 0.048% in assay [1]; 1.18% in assay [2]; 6.16% in assay [3]; -1.76% in assay [4]; -0.107% in assay [5].

In the case of `CCCn1c(=O)c2ccc(Cl)cc2n2c(=O)n(CC(=O)Nc3ccc(OC)cc3)nc12`, the activity change, negative = inhibition in assay [1] was -0.031%; in assay [2], 4.94%; in assay [3], 1.96%; in assay [4], -0.802%; in assay [5], 1.78%.

`CC(C)Cn1c(=O)c2ccccc2n2c(CCC(=O)N3CCN(c4ccc(F)cc4)CC3)nnc12`: the activity change, negative = inhibition in assay [1] is -16%; in assay [2] it was 3.18%; in assay [3], 0.505%; in assay [4], -35.5%; in assay [5], -5.13%.

Regarding `CC(C)(C)[C@H](NC(=O)c1ccc(N)c(Cl)c1)C(=O)N1CCC[C@H]1C(=O)N[C@H](C#N)CC(=O)O`, the activity change, negative = inhibition in assay [1] was -9.3%; in assay [2], -6.92%; in assay [3] it was -1.64%; in assay [4], -16.4%; in assay [5], 2.18%.

For `OCCNC1CCCc2c1[nH]c1ccc(-c3ccccc3)cc21` (stereo not drawn), the activity change, negative = inhibition in assay [1] was -1.65%; in assay [2], 3.96%; in assay [3], 3.7%; in assay [4], -21.8%; in assay [5] it was -6.54%.

Consider `CN1C(=O)c2cc(C(=O)NCCc3ccc(Cl)cc3)nn2CC1(C)C(=O)NC1CCCCCC1` (stereo not drawn), for which the activity change, negative = inhibition in assay [1] is 6.55%; in assay [2] it was 0%; in assay [3] it was 7.3%; in assay [4] it was -2.08%; in assay [5] it was 5.43%.

Turning to `C/C=C/C=C/C=C/C(=O)O[C@@H]1[C@@H](OC)C2=C(C(=O)N(C(C)C(=O)O)C2)[C@@]2(C)CCCC(C)(C)[C@H]12` (stereo partly drawn), the activity change, negative = inhibition is -15% in assay [1]; 5.74% in assay [2]; 10.9% in assay [3]; -9.16% in assay [4]; 7.57% in assay [5].

As to `Cc1cc(C[C@@H]2COC[C@@H]2NC(=O)c2cnn3cc(CCO)cnc23)on1`, the activity change, negative = inhibition in assay [1] is -0.249%; in assay [2], 2.38%; in assay [3], 3.52%; in assay [4], -1.63%; in assay [5], -1.05%.

With `Cc1cccc(-c2nnn3c2nc(NCCc2ccc(S(N)(=O)=O)cc2)c2ccccc23)c1`, the activity change, negative = inhibition in assay [1] was -13.8%; in assay [2], -4.85%; in assay [3], -2.57%; in assay [4] it was -14.4%; in assay [5], -7.06%.

Consider `CCOc1ccc(N2C(=O)c3cc(-c4ccccc4)nn3CC2(C)C(=O)NCCCOC)cc1` (stereo not drawn), for which the activity change, negative = inhibition in assay [1] was -2.88%; in assay [2], 3.24%; in assay [3], -2.25%; in assay [4], -7.49%; in assay [5], -5.38%.

Take `COc1ccc(C)cc1Nc1nc2c(S(=O)(=O)c3ccccc3)nnn2c2ccccc12`: the activity change, negative = inhibition in assay [1] is -3.15%; in assay [2], -1.51%; in assay [3] it was -0.84%; in assay [4], -6.98%; in assay [5], -6.33%.

For `COc1ccc(CN2C(=O)c3c(-n4cccc4)c4cc(C)ccc4n3CC2(C)C(=O)NC2CCC(C)CC2)cc1` (stereo not drawn), the activity change, negative = inhibition in assay [1] is -1.7%; in assay [2], 3.14%; in assay [3], 3.81%; in assay [4], 0.752%; in assay [5] it was -1.72%.

Consider `COc1ccccc1C(=O)Nc1cccc(NC(=O)c2cccc(C)c2)c1`, for which the activity change, negative = inhibition in assay [1] was -6.53%; in assay [2], -8.26%; in assay [3], 2.3%; in assay [4], -21.3%; in assay [5], -6.74%.

As for `Cc1ccccc1CNC[C@H]1O[C@@H]2C[C@@H](CC(=O)NCc3nccn3C)O[C@@H]2[C@@H]1O`, the activity change, negative = inhibition in assay [1] was -4.41%; in assay [2] it was -8.08%; in assay [3] it was -2.72%; in assay [4], -15.1%; in assay [5] it was -7.34%.

Turning to `CCOc1ccc(C(=O)CSc2nnc3n(C)c(=O)c4ccc(C(=O)NC5CCCC5)cc4n23)cc1`, the activity change, negative = inhibition in assay [1] is -3.16%; in assay [2] it was -2.95%; in assay [3], 1.18%; in assay [4] it was 3.96%; in assay [5], -2.19%.

In the case of `CCn1nc(CNC(=O)c2c(F)cccc2Cl)c2ccccc21`, the activity change, negative = inhibition turned out to be 13.4% in assay [1]; 3.58% in assay [2]; 13.4% in assay [3]; 10.3% in assay [4]; 12.8% in assay [5].

As to `CCn1ncc(N2CCCC(CC(=O)Nc3cc(OC)cc(OC)c3)C2)cc1=O` (stereo not drawn), the activity change, negative = inhibition in assay [1] is -3.05%; in assay [2], 3.48%; in assay [3], 3.37%; in assay [4], -6.04%; in assay [5] it was 3.01%.

In the case of `Cn1cccc1CN1CC(F)(F)C[C@H]1c1nnc(C2CC2)o1`, the activity change, negative = inhibition in assay [1] was -11.5%; in assay [2], -8.98%; in assay [3], -3.82%; in assay [4], -11.9%; in assay [5], -4.88%.

Turning to `O=C(c1ccc(Cl)cc1)N1CCCC2(CNc3ncccc3[S+](=O)([O-])N2)C1` (stereo not drawn), the activity change, negative = inhibition in assay [1] is -0.153%; in assay [2] it was -0.562%; in assay [3], 1.62%; in assay [4] it was -0.988%; in assay [5], 2.52%.

In the case of `CCc1cccc(NC(=O)Cn2c(=O)oc3cc(S(=O)(=O)N4CC(C)CC(C)C4)ccc32)c1` (stereo not drawn), the activity change, negative = inhibition in assay [1] was -8.11%; in assay [2], 0.227%; in assay [3] it was 5.16%; in assay [4], -0.118%; in assay [5], -38.3%.

`O=C(c1ccc2c(c1)N(C(=O)c1ccccc1)CC2)N1CCN(c2ccc(Cl)cc2)CC1`: the activity change, negative = inhibition in assay [1] is -2.57%; in assay [2], -3.38%; in assay [3], -2.77%; in assay [4], -0.383%; in assay [5] it was 2.03%.

For the compound `COCCCNC(=O)C1(C)Cn2nc(-c3ccccc3)cc2C(=O)N1c1ccc(C)cc1C` (stereo not drawn), the activity change, negative = inhibition in assay [1] was 0.004%; in assay [2], 1.16%; in assay [3] it was -3.79%; in assay [4], 1.98%; in assay [5] it was -5.36%.

For the compound `Cc1cccc(/C=N/Nc2cc(N3CCOCC3)n3nc(-c4ccncc4)cc3n2)c1`, the activity change, negative = inhibition in assay [1] was 1.36%; in assay [2], 5.33%; in assay [3] it was 0.014%; in assay [4] it was -25.9%; in assay [5] it was -8.31%.

Regarding `CN1C(=O)c2cc(C(=O)NCc3cccc(F)c3)nn2CC1(C)C(=O)NC1CCCC1` (stereo not drawn), the activity change, negative = inhibition is -4.5% in assay [1]; 0.008% in assay [2]; -1.69% in assay [3]; -4.08% in assay [4]; -1.84% in assay [5].

`COCCN1C(=O)c2c(NC(C)=O)c3cc(F)ccc3n2CC1(C)C(=O)NC1CCCCC1` (stereo not drawn): the activity change, negative = inhibition in assay [1] is -3.89%; in assay [2], -3.88%; in assay [3], 3.89%; in assay [4] it was -6.28%; in assay [5] it was -5.48%.
